About 540 (0.36%) of roughly 150,000 compounds showed an effect of 50% or more. This is one part of the list.
tested on: Plasmodium falciparum; test: Primary screen in NF54 nanoGlo assay, in single point, at 2uM, 72h; a lower Z score goes with more inhibition; assay type: functional, Erythrocyte; settings: timepoint 72 hour

Structure (SMILES) | % Inhibition [%] | Z score
CC1(C)Cc2cc(S(=O)(=O)Nc3cncc(N4CCCC4)n3)ccc2O1 | -1 | 0.14
Cc1noc(C)c1CC(=O)N1CC2(C[C@H](N(C)Cc3ccccc3)CO2)C1 | -16 | 2.49
O=C(NC1CC1)C1CCN(c2nc3ccc(-c4ccccc4)nc3s2)CC1 | -11 | 1.22
O=C(NS(=O)(=O)CC1CCCCC1)C1CCC(C(F)(F)F)CC1 (centres undefined) | -5 | 0.62
CCc1nc(-c2cc(NC(=O)Cc3cccc(F)c3)c(C)s2)no1 | -1 | 0.07
O=S(=O)(NCCc1n[nH]c(-c2ccc(Cl)cc2)n1)c1ccc(C2CCCCC2)cc1 | -8 | 1.42
CCCC(=O)N[C@H]1CCO[C@@H]1C1CCN(C(=O)OC(C)(C)C)CC1 | 0 | 0.08
C#CCNC(=O)CNS(=O)(=O)c1c(F)cccc1Cl | -12 | 1.69
CCN(CC)CCNC(=O)c1cnn(-c2nccc(-c3cccs3)n2)c1COC | -1 | 0.28
CC(NCC(=O)NCCNC(=O)CNC(C)c1ccc(F)c(F)c1)c1ccc(F)c(F)c1 (centres undefined) | -13 | 1.29
CCS(=O)(=O)c1c(C(=O)c2ccccc2)c2ccc(C(N)=O)cn2c1S(=O)(=O)CC | -8 | 0.99
CC[C@H](C)C(=O)N(C)Cc1sccc1C | 9 | -1.29
C[C@H]1c2ccccc2CN1C(=O)c1csc(=O)[nH]1 | -18 | 2.48
Cc1nn(C)c(C)c1CNc1cccc2nsnc12 | 0 | 0.03
O=C(Nc1cccc(Br)c1Cl)[C@@H]1CCCO1 | 5 | -0.53
O=C(NCC1(O)Cc2ccccc2C1)C(=O)Nc1cccc(N2CCCC2=O)c1 | 5 | -0.69
Cc1[nH]ncc1C(=O)N1CCC(C)C1CO (centres undefined) | -5 | 0.53
CCOc1ncc(C(=O)N2CC(C)C(C)C2)cc1Cl (centres undefined) | -2 | 0.19
CCC[C@H](NS(=O)(=O)N(C)C1CCOCC1)C1CCCCC1 | -3 | 0.32
CC(=O)c1c(C)nn(C(=O)c2ccco2)c1C | 3 | -0.39
CN(C(=O)c1ccc2[nH]ccc2c1)C1CCCC1S(C)(=O)=O (centres undefined) | -2 | 0.21
O=C(Nc1nnc(NC(=O)c2ccc(F)cc2)[nH]1)c1ccc(F)cc1 | 2 | -0.29

Structure (SMILES) | % Inhibition [%] | Z score
Cc1ccc(F)cc1OCc1ncnn1C | 0 | 0
CC1CN(CC2CCCO2)CCC1NCCOc1ccc(F)cc1F (centres undefined) | 3 | -0.43
Cc1nnccc1NC(=O)N1CCC[C@@H]1CCC1CCCCC1 | 10 | -1.21
O=C1C[C@H](c2cc(F)ccc2F)c2c(-c3ccc(Cl)cc3)n[nH]c2N1 | 7 | -0.86
CCCC(=O)N(Cc1[nH]c(C)c(C(=O)OCC)c1C)C1CCCCC1 | -14 | 1.85
CCOC(=O)C(C)(C)c1csc([C@H](C)OCC)n1 | -3 | 0.45
C[C@H](O)C1CN(Cc2cc(Cl)ccc2Br)C1 | 6 | -0.87
Cc1cccc(C)c1OCC(=O)Nc1ccc2c(c1)N(S(N)(=O)=O)CC2 | 4 | -0.58
CC1=NN([C@H](C#N)c2ccc(N(C)C)cc2)C(C)(C)C1 | -2 | 0.43
CCc1csc(CCNC(=O)N2C[C@H](O)[C@@H](N3CCCC3)C2)n1 | -19 | 2.48
CCS(=O)(=O)C1CN(S(=O)(=O)CCC(F)(F)F)C1 | -4 | 0.67
C[C@H](Oc1ncccc1C(=O)NCC1(CCO)CC1)C(F)(F)F | 2 | -0.3
Cc1ncoc1C(=O)N1CCN(CC2C[C@@H]3C=C[C@H]2C3)CC1 (some centres undefined) | -4 | 0.55
CCc1nnc(NC(=O)C2(C)COC(c3ccccc3)OC2)s1 (centres undefined) | 30 | -0.4
CC[C@H](NC(=O)COC)C(C)(C)c1ccccc1 | -5 | 0.65
Cc1ccc(C(=O)Nc2cc(C3CCCCC3)[nH]n2)c(=O)[nH]1 | 0 | -0.02
O=C(N[C@H]1C[C@@H]2C[C@H]1N(S(=O)(=O)c1cccnc1)C2)c1cccs1 | -11 | 1.76
CCN(Cc1nc2c(s1)C[C@@H](C)CC2)C(=O)c1cccnc1OC | -2 | 0.22
CC(C(=O)N1CCOC(Cn2cccn2)C1)n1cccn1 (centres undefined) | -5 | 0.81
Cc1cc(C)nc(CN(C)C(=O)c2cnc(O)c(Cl)c2)c1 | -6 | 0.83
Cc1cc(C(=O)N2CC[C@H]3[C@H](CCC(=O)N3CCCn3ccnc3)C2)no1 | -10 | 1.18
Cc1cc(C)nc(-n2nc(-c3ccc(F)cc3)cc2O)n1 | -1 | 0.13

Structure (SMILES) | % Inhibition [%] | Z score
COC(=O)c1cc2c(-c3ccccc3)nn(-c3ccccc3)c2[nH]1 | 7 | -0.68
Nc1ccc2c(c1)CN(C1CCCC1)C2 | -7 | 1.01
N#CCCN(CCC#N)Cc1cc2cc(F)ccc2o1 | -9 | 1.03
CC1CCCCC1NC(=O)CCNC(=O)N1CC(=O)Nc2ccccc21 (centres undefined) | 8 | -0.97
O=C(CC1(C(=O)Nc2cccc(S(=O)(=O)N3CCOCC3)c2)CCCCC1)NC1CC1 | -46 | 5.39
CCN(CC)c1nc2nonc2nc1Nc1ccccc1F | 30 | -3.89
COc1cc(OC)cc(N2CC[C@H](N(C)Cc3ccnn3C)C2=O)c1 | 8 | -1.21
CC(C)(C)c1n[nH]c([C@@H]2CN(Cc3noc(C4CC4)n3)CCO2)n1 | 30 | -3.43
CCOc1ccc(N(C)C[C@H](O)COC)cc1 | 6 | -0.74
O=C(COCc1ccccc1)N1CC[C@H](OCC2CC2)C1 | -10 | 1.59
CCCNC(=O)c1ccc(Cl)c(N)c1 | -6 | 0.8
Cc1ccccc1-c1nnc2n1C(C)(C)Cc1c-2ccc2ccccc12 | 4 | -0.62
CCn1c(-c2cc(NC(=O)Cc3cccc(OC)c3)[nH]n2)cc2ccccc21 | -6 | 0.83
O=C(C[C@@H]1NC(=O)N(CCc2c[nH]c3ccccc23)C1=O)NC[C@@H]1CCCN2CCCC[C@H]12 | -9 | 1.2
Cc1cc(C(=O)N2C[C@@H](COCC3CC3)[C@H](c3ccccn3)C2)[nH]n1 | -3 | 0.62
O=C(NC1CC1)c1cccc(NC(=O)N2CC3(CCCCC3)C2)c1 | 2 | -0.38
Cc1cc(C)c(CNC(=O)N2CCN(CCC(C)(C)C)CC2)c(=O)[nH]1 | -3 | 0.41
CN(Cc1csc(-c2ccccc2)n1)C1CCN(S(C)(=O)=O)CC1 | 6 | -1.15
COc1ccccc1C1(CNc2ccc3nnnn3n2)CCOCC1 | -13 | 1.19
C[C@@H](c1ccco1)N(C)C(=O)[C@H]1CC[C@H](C(=O)O)CC1 | -11 | 1.21
C[C@H](NC(=O)C(c1ccccc1)c1ccccc1)c1n[nH]c(=O)[nH]1 | -3 | 0.54
CCn1nc(C)c(C(=O)N2CC[C@](C)(O)[C@H](CC(C)C)C2)c1C | -11 | 1.99

Structure (SMILES) | % Inhibition [%] | Z score
Cc1ncccc1OC[C@@H](O)COC(C)C | -10 | 1.52
O=C(c1cnc(CN2CCCC2)s1)N1CCc2[nH]cnc2C1 | 1 | -0.14
O=C(NCc1cnn2c1CCCC2)c1ccccc1Cl | 7 | -1.1
O=C(C1=CCCC1)N1CCC[C@H](c2[nH]ncc2-c2ccccc2)C1 | 0 | 0.07
c1csc(-c2cn(CCOC3CCC3)nn2)c1 | -2 | 0.32
c1coc(-c2noc(CN3CC[C@@]4(CCCOC4)C3)n2)c1 | -8 | 0.96
O=C(c1cccc2cn[nH]c12)N1CCCC1 | 0 | 0.05
CN(C)[C@@](C)(C(=O)NCc1cncn1C)c1ccccc1 | -2 | 0.24
O=C(NCc1cccc(F)c1)c1ccc(-c2cccs2)nc1 | -25 | 4.82
Cc1cccc(N2CCN(C(=O)c3nc4cccnc4n(CC(C)C)c3=O)CC2)c1 | 1 | -0.09
O=C(NCc1nccs1)c1cc(Br)cnc1C1CC1 | -8 | 1.18
CC(O)CC1CCCN1C(=O)C1CCN(c2ccccc2F)C1 (centres undefined) | -4 | 0.94
CC(C)(C)NS(=O)(=O)c1cc(C(=O)N2CCCCCC2)cs1 | -6 | 0.58
Cc1cccc(C(=O)NC2CCN(Cc3ccccc3)CC2)n1 | 3 | -0.64
CCOc1cccn2cc(CCN3C(=O)c4ccccc4C3=O)nc12 | -8 | 1.12
CCOC(=O)[C@H](Cc1ccncc1)NC(=O)Cc1ccc(Cl)cc1 | -12 | 1.43
Cc1ccc2c(c1)CN(CCC(=O)NCc1cccc(F)c1F)C[C@H](C)O2 | -13 | 1.63
O=C(COC(=O)c1cnn(CCO)c1-c1ccccc1)Nc1ccc(F)c(F)c1 | -8 | 1.09
CC[C@H]1CN(S(=O)(=O)c2ccccc2)CC[C@H]1CC(=O)NC1CC1 | -1 | 0.2
Cc1cnc(NC(=O)Cc2cccc3ccccc23)s1 | -10 | 1.08
CC1=CC(C2CC(=O)N(c3ccc(Cl)cc3)C2=O)CC2C(=O)N(c3ccc(Cl)cc3)C(=O)C12 (centres undefined) | 41 | -5.28
